Source: PubChem BioAssay AID588855 (National Center for Advancing Translational Sciences (NCATS), 2011)
The whole screen tested about 410,000 compounds, of which about 5,000 (1.2%) were called active. Inconclusive results, whose numbers are uncertain, are shown with a selection of clear calls. Calls come from the whole dose curve; as a rule, active = well fitted inhibition curve with a large enough effect; inconclusive = small, poorly fitted or top-dose-only effect; inactive = no such curve, though single readings can be large or run the other way. Potencies of inconclusive entries are doubtful fits and often do not repeat. Numbered stars: 1 amine (or outer) side, 2 acyl side, 3 side chain; on linkers, the order of the positions; unused ones are H or OH. Square brackets hold non-standard residues; d marks the D form. Peptide text beside a SMILES is read from it. X2 = CCC[C@@H](N[*:1])[C@H](C)C(=O)O[C@H](C(=O)[*:2])[C@@H](C)CC; X1 = CC(N[*:1])C(=O)C(C)(C)C(=O)[*:2]; NMeY = CN[C@@H](Cc1ccc(O)cc1)C(=O)O; NMeL = CN[C@@H](CC(C)C)C(=O)O; NMeV = CN[C@H](C(=O)O)C(C)C; NMeA = CN[C@@H](C)C(=O)O

Assay: qHTS for Inhibitors of TGF-b; note: nearly all actives have a fitted effect of over 65% in size
Conditions: HepG2 CAGA-GFP TGF-b/SMAD3 reporter, GFP fluorescence, 18 h, TGF-beta stimulated, 500 pg/mL final; series mostly up to 46.1 µM; activity, negative = inhibition: at the top concentration
How it was run: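 HEPG2 CAGA-GFP, 1000 cells/well; 2 h settle, 37 C; cpd via pin tool; TGF-b 500 pg/mL final; 18 h, 37 C; GFP imaging ex488/em500-530; %Activity normalised to -TGF-b and +DMSO controls; CRC fit, curve class.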
% is set by controls: 0 for no effect and ±100 for the full control effect; potency is the fitted concentration of half-maximal effect; tags give direction and shape of the fitted curve.

Row | Compound | Potency | activity, negative = inhibition
1 | Cc1ccc(S(=O)(=O)N2CCC(=O)N(CCOCc3cccc(C)c3)CC2)cc1 | inconclusive: 11.2 µM [inhibitor, single point] | 
2 | Cc1cc(C)c(-c2csc(NC(=O)C3=NN(c4ccccc4)C(=O)CC3)n2)c(C)c1 | inconclusive: 12.6 µM [inhibitor, partial curve] | 
3 | Cc1cccc(N=C2Sc3nc4c(C)c(C)ccc4cc3CN2CCN2CCOCC2)c1 | inconclusive: 35.5 µM [inhibitor, single point] | 
4 | Nc1cc2[nH]c(=O)c3ccccc3c2cc1Br | active: 0.316 µM | 
5 | C1=C\CCC2(OCCO2)C2(CC/1)OCCO2 |  | inactive: -17.6%
6 | COC(=O)c1c(NC(=O)c2c(OC)cccc2OC)sc2c1CCCC2 | inconclusive: 17.8 µM [inhibitor, single point] | 
7 | O=[N+]([O-])c1ccc(C2=NN(CCO)C(=Nc3ccc(OC(F)(F)F)cc3)SC2)cc1 | inconclusive: 14.1 µM [inhibitor, single point] | 
8 | CC1CCCCN1S(=O)(=O)c1ccc2[nH]c(=O)cc(C(=O)NCCc3ccc(Cl)cc3)c2c1 (stereo not given) | inconclusive: 1.78 µM [inhibitor, full curve] | 
9 | CCc1ccccc1NC(=O)/C(C#N)=C\c1ccc(Sc2ccccc2)o1 | inconclusive: 2.82 µM [inhibitor, partial curve] | 
10 | CCn1ccnc1CN(C)Cc1cn(-c2cc(C)ccc2C)nc1-c1ccccc1 | inconclusive: 12.6 µM [inhibitor, single point] | 
11 | O=[N+]([O-])c1cccc(C2NCC(c3ccccc3Cl)c3c2[nH]c2ccccc32)c1 (stereo not given) | inconclusive: 35.5 µM [inhibitor, single point] | 
12 | CCCCCCCC[n+]1cccc2c3ccccc3ccc21 | active: 1.41 µM | 
13 | CCOc1ccc(NS(=O)(=O)c2cc(Cl)ccc2OC)cc1 | inconclusive: 2.82 µM [inhibitor, full curve, poor fit] | 
14 | CC(/C=N\NC(=O)CN1CCN(Cc2ccccc2)CC1)=C\c1ccco1 | inconclusive: 35.5 µM [inhibitor, single point] | 
15 | COc1ccccc1-c1ccnc2c(-c3ccc(Br)cc3)c(C)nn12 | inconclusive: 0.562 µM [inhibitor, full curve, poor fit] | 
16 | CCc1ccc(Cn2c(CNS(=O)(=O)c3ccc(Cl)s3)nc3cccnc32)cc1 | inconclusive: 15.8 µM [inhibitor, single point] | 
17 | CCc1ccc(C2=NN(CCC(=O)NCc3cccs3)C(=O)CC2)cc1 | inconclusive: 14.1 µM [inhibitor, single point] | 
18 | COc1ccc(CNC(=O)C(C)n2nc(C)c3sc4ccccc4c3c2=O)cc1OC (stereo not given) |  | inactive: -3.72%
19 | CCOC(=O)c1cc2c(=O)n3ccccc3nc2n(CC2CCCO2)c1=NC(=O)c1ccccc1F (stereo not given) | inconclusive: 6.31 µM [inhibitor, single point] | 
20 | Cc1ccccc1NC(=O)CSc1nnc(-c2cccc(Cl)c2)o1 | inconclusive: 6.31 µM [inhibitor, single point] | 

Row | Compound | Potency | activity, negative = inhibition
21 | Nc1nc(CN2CCN(c3ccccc3F)CC2)nc(N2CCCc3ccccc32)n1 | inconclusive: 35.5 µM [inhibitor, single point] | 
22 | S=C(Nc1ccc(Cl)cc1)NC1CC2CCCC(C1)N2C1CCCC1 (stereo not given) | inconclusive: 12.6 µM [inhibitor, partial curve, poor fit] | 
23 | O=C(CSc1n[nH]c(-c2ccccc2)n1)NCCc1ccccc1 |  | inactive: -13.2%
24 | COc1cc(/C=C(\C#N)C(=O)c2ccc(O)c(O)c2)cc(I)c1O |  | inactive: 14.9%
25 | CC(C)CC1C(=O)N(Cc2cn(CCC3OCCCO3)nn2)CCS(=O)(=O)N1Cc1ccc(-c2ccc(Cl)c(Cl)c2)cc1 (stereo not given) | inconclusive: 31.6 µM [inhibitor, single point] | 
26 | COc1cccc(CNC(=O)CCS(=O)(=O)c2cc3c4c(c2)CCN4C(=O)CC3)c1 | inconclusive: 15.8 µM [inhibitor, single point] | 
27 | Cc1ccc(CNC(=O)c2cnn(-c3ccc(F)cc3F)c2C2CCN(C(=O)OC(C)(C)C)CC2)cc1 | inconclusive: 22.4 µM [inhibitor, single point] | 
28 | CCCOc1ccc(C2C(=O)N(C3CCCCC3)CC(=O)N2CCC2=CCCCC2)cc1OC (stereo not given) |  | inactive: 6.31%
29 | Nc1ccccc1C(=O)NNC(=O)C(=O)/C=C(\O)c1ccccc1 | inconclusive: 35.5 µM [inhibitor, single point] | 
30 | COc1cc(Cl)c(NC(=O)CN(C)S(=O)(=O)c2ccc3[nH]c4c(c3c2)CCCC4)c(OC)c1 | inconclusive: 10 µM [inhibitor, partial curve, poor fit] | 
31 | O=C(CN1CCCC1c1ccc2c(c1)OCCO2)NC(=O)Nc1ccccc1F (stereo not given) |  | inactive: 5.11%
32 | Clc1ccccc1CN(Cc1ccccc1)c1ncnc2nc[nH]c12 | inconclusive: 35.5 µM [inhibitor, single point] | 
33 | CC(C)(C)OC(=O)[C@H](CCCCN)NC(=O)c1nc[nH]c1C(=O)N[C@@H](CCCCN)C(=O)OC(C)(C)C |  | inactive: -18.6%
34 | Cc1c(Cl)cccc1NC(=O)Cn1c(-c2ccc(F)cc2)noc1=O |  | inactive: -1.17%
35 | CCC[C@H]1NC(=O)[C@H](C)N(C)C(=O)C(C)(C)C(=O)C(C)NC(=O)[C@H](Cc2ccc(OC)cc2)N(C)C(=O)[C@H](C(C)C)N(C)C(=O)CNC(=O)[C@H](CC(C)C)N(C)C(=O)CNC(=O)[C@H]([C@@H](C)CC)OC(=O)[C@H]1C (stereo not given in full) (cyclo(G[NMeL]G[NMeV][NMeY](Me)[X1][NMeA][X2])) | active: 1.12 µM | 
36 | Cc1ccsc1CN(C)c1ncnc2ccc(-c3ccoc3)cc12 | active: 11.2 µM | 
37 | COc1cc(Br)cc(/C=N/NC(=O)Cc2ccc(C(F)(F)F)cc2[N+](=O)[O-])c1O | active: 10 µM | 
38 | O=C(N/N=C/c1cn(-c2cccs2)nc1-c1ccccc1)c1ccccc1Cl | inconclusive: 4.47 µM [inhibitor, full curve, poor fit] | 
39 | Cn1c(=O)oc2cc(S(=O)(=O)NC(Cc3ccccc3)C(=O)N3CCCCC3)ccc21 (stereo not given) | inconclusive: 11.2 µM [inhibitor, single point] | 
40 | COc1ccc(N(CC(=O)N2CCN(c3ccc(F)cc3)CC2)S(=O)(=O)c2c(C)nn(C)c2C)cc1 | inconclusive: 35.5 µM [inhibitor, single point] | 
